In PubChem BioAssay (NCATS):
“And” between values parts separate entries of the source, which are not always exact repeats. Equal values may be shown once. Some of the results follow. Shown are side measurements of this screen, not its main read-out; they come without a call. For part of these data: Most of these compounds were active or inconclusive in the main read-out, so they are no random draw. The note in brackets gives the kind of curve behind each potency; many fits are weak.

Experiments:
[1] = qHTS Assay for Lipid Storage Modulators (AID 1519); details: Drosophila S3 cells, BODIPY lipid droplet/cell ratio, laser cytometry, cells loaded with oleic acid
In short: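 Cells seeded at 5,000 per well were treated with compounds over a concentration series and loaded with oleic acid (400 uM, as added). Lipid droplet fluorescence (488 nm excitation, 500-530 nm channel) was read by laser-scanning cytometry and normalized to 20 uM Triacsin C.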

[2] = S16 Schwann cell PMP22 intronic element beta-lactamase assay (AID 624044); details: S16 rat Schwann cells, PMP22 element beta-lactamase FRET, 24 h; measured here: 460 nm blue channel; note: nearly all actives have a fitted effect of over 15% in size
In short: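 Rat S16 Schwann cells with beta-Lac driven by a PMP22 intronic element, compound-treated 24 h at 37 °C. LiveBLAzer FRET B/G read: 460 nm normalized to potassium clavulanate vs DMSO; 535 nm FRET as viability; concentration-effect curves classified.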

[3] = A High-Content qHTS Against Drug Library for the Identification of Small Molecules that Inhibit DYT1 Early Onset Primary Dystonia-Associated Cell Pathology (AID 1645839); details: HEK293 Flp-In EGFP-delE TorsinA, punctate imaging, 48 h; measured here: cell count cytotoxicity
In short: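 Readout: %pathology, the punctate EGFP-TorsinA distribution from imaging, as the primary channel and cell count as the toxicity counterscreen. HEK293 Flp-In cells expressing delE TorsinA were induced with tetracycline and treated with compound for 48 h.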

[4] = qHTS drug screen for cell cycle checkpoint inhibitors in PARPi-resistant BRCA-mutant ovarian cancer cell lines. (AID 1963452); details: PEO1/OlaR viability, CellTiter-Glo luminescence, 96 h
In short: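 PEO1, PEO4 and PEO1/OlaR ovarian cancer cells, 600 per well, exposed 96 h at 37C to a dilution series. Viability read by CellTiter-Glo luminescence, normalized to DMSO and empty wells; activity summarized as Z-AUC.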

[5] = qHTS for identification of novel therapeutic agents for treatment of microphthalmiaassociated transcription factor (MiT) renal cell carcinoma (RCC) (AID 1963991); details: CellTiter-Glo, 48 h; for z-score: stronger effect = lower value
In short: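 Curves over 11 concentrations were fitted to CellTiter-Glo luminescence, scaled between empty wells (0%) and DMSO (100%) viability. Cells were UOK109, UOK124 and UOK145 TFE3-fusion RCC lines at 500/well, exposed 48 hours at 37 C.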

[6] = measured here: cell count channel max response
[7] = measured here: cell number channel AC50
[8] = measured here: lipid (BODIPY) channel AC50
[9] = measured here: lipid channel max response
Tags give direction and shape of the fitted curve.

| Compound | max response [1, 6] | AC50 [1, 7] | AC50 [1, 8] | max response [1, 9] | AC50 [2] | AC50 [3] | AC50 ([4]; measured here: PEO1 parental viability) | AC50 ([4]; measured here: PEO4 viability) | z-score ([5]; TFE3-RCC UOK109 viability, measured here: UOK109 Z-AUC) | z-score ([5]; TFE3-RCC viability, measured here: UOK124 Z-AUC) | AC50 ([5]; TFE3-RCC viability, measured here: UOK124 cell viability) | z-score ([5]; TFE3-RCC viability, measured here: UOK145 Z-AUC) | AC50 ([5]; TFE3-RCC viability, measured here: UOK145 cell viability) |
| --- | --- | --- | --- | --- | --- | --- | --- | --- | --- | --- | --- | --- | --- |
| CCN(CC)C(=O)c1ccc(O)c(OC)c1 | 33% | 39.8 µM [rising, single point] | 39.8 µM [rising, single point] | 32.4% | 0.891 µM [falling, full curve, poor fit] |  |  |  |  |  |  |  |  |
| NS(=O)(=O)c1cc2c(cc1Cl)NC(CSCc1ccccc1)=NS2(=O)=O | 1.24% and 32% | 8.91 µM [rising, partial curve, poor fit] | 14.1 µM [rising, partial curve, poor fit] and 12.6 µM [rising, partial curve, poor fit] | 5.1% and 47.1% | 0.19 µM [falling, full curve, poor fit] |  |  |  |  |  |  |  |  |
| CCC1OC(=O)C[C@H](O)C(C)[C@@H](O[C@@H]2OC(C)C(O)C(N(C)C)C2O)C(CCN2CC(C)CC(C)C2)CC(C)C(=O)/C=C/C(C)=C\[C@@H]1COC1OC(C)C(O)C(OC)C1OC (some centres not stated) | 30.1% | 39.8 µM [rising, single point] | 39.8 µM [rising, single point] | 47.6% | 0.0794 µM [falling, full curve, poor fit] |  |  |  |  |  |  |  |  |
| Cc1cc(C2CCCCC2)n(O)c(=O)c1 | -29.1% and -27.4% |  | 14.1 µM [falling, single point] and 39.8 µM [falling, single point] | -78.1% and -74.7% | 4.77 µM [falling, full curve, poor fit] | 0.562 µM [falling, full curve, poor fit] | 9.77 µM [falling, partial curve] | 5.49 µM [falling, partial curve] | -0.974 | -0.469 | 4.18 µM [falling, partial curve, poor fit] | -0.458 | 14.8 µM [falling, partial curve] |
